Earlier results on 63 sequences are cited in article PMC11006913.

Residue numbers refer to the chain shown, from its start. The list shows a part of the results.

What all share (conditions): PBM; conditions not shown; double strand, one strand shown; scale: upbm affinity estimate (log intensity, higher = more binding, comparable within an allelic series)
In series [1] the target is T1, HESX1 E149K (Homo sapiens) (UniProt Q9UBX0).
T1 sequence: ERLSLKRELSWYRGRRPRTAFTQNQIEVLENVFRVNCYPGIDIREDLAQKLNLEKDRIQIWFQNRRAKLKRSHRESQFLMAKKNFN

In series [2] the target is T2, HESX1 N125S (Homo sapiens) (UniProt Q9UBX0).
T2 sequence: T1 sequence with N31S, K55E

Series [3] has as its target T3, HESX1 R160C (Homo sapiens) (UniProt Q9UBX0).
T3 sequence: T1 sequence with K55E, R66C

On to CCGGATCG [8-mer CCGGATCG], for which the binding signal is 10 in series [1], 7.67 in series [2] and 10.1 in series [3].
Take CCCCGAAC [8-mer CCCCGAAC]: the results for the binding signal in series [1], in series [2] and in series [3] were 9.99, 8.02 and 10.1, respectively.
As to GCGCGTCC [8-mer GCGCGTCC], the binding signal in series [1] was 9.94; in series [2], 7.57; in series [3] it was 10.1.
Take CCCCCACG [8-mer CCCCCACG]: the binding signal in series [1] is 9.87; in series [2], 7.71; in series [3], 10.
For the sequence CCAGCGGG [8-mer CCAGCGGG], the values for the binding signal in series [1], in series [2] and in series [3] were 9.9, 7.15 and 9.9, respectively.
In the case of CAGGGGGC [8-mer CAGGGGGC], the binding signal is 9.78 in series [1], 7.57 in series [2] and 9.99 in series [3].
As for CTCTGGGC [8-mer CTCTGGGC], the binding signal in series [1] is 9.97; in series [2], 7.78; in series [3], 10.
In the case of ACCGGGGA [8-mer ACCGGGGA], the binding signal in series [1] was 9.77; in series [2] it was 7.61; in series [3], 9.92.
CGACCGGC [8-mer CGACCGGC]: the binding signal in series [1] is 10; in series [2] it was 7.71; in series [3] it was 10.
Regarding GCCGCTCC [8-mer GCCGCTCC], the binding signal in series [1] was 9.87; in series [2], 7.53; in series [3], 9.95.
CGGCACAG [8-mer CGGCACAG]: the binding signal in series [1] was 9.91; in series [2], 7.64; in series [3], 10.1.
Take AATTATCG [8-mer AATTATCG]: the binding signal in series [1] is 11.4; in series [2], 11.2; in series [3] it was 10.3.
For the sequence CAGGACCC [8-mer CAGGACCC], the binding signal in series [1] was 9.97; in series [2], 7.7; in series [3] it was 10.1.
In the case of CCTCCCAG [8-mer CCTCCCAG], the binding signal is 9.94 in series [1], 7.54 in series [2] and 10.2 in series [3].
As for CCGGAGCA [8-mer CCGGAGCA], the results for the binding signal in series [1], in series [2] and in series [3] were 10, 7.93 and 10.1, respectively.
Take TTAATGAA [8-mer TTAATGAA]: the binding signal is 10.9 in series [1], 10.5 in series [2] and 10.2 in series [3].
Regarding GGGGGTCA [8-mer GGGGGTCA], the binding signal in series [1] was 9.93; in series [2], 7.56; in series [3], 9.98.
On to ACCGGAGG [8-mer ACCGGAGG], for which the figures for the binding signal in series [1], in series [2] and in series [3] were 9.92, 7.87 and 10, respectively.
Turning to AGGCCAGG [8-mer AGGCCAGG], the figures for the binding signal in series [1], in series [2] and in series [3] were 9.89, 7.58 and 10, respectively.
For AGGCGCCT [8-mer AGGCGCCT], the binding signal in series [1] was 9.9; in series [2], 7.71; in series [3], 10.
Turning to AGCCCCTG [8-mer AGCCCCTG], the binding signal in series [1] is 9.94; in series [2], 7.75; in series [3] it was 10.1.
CCAGCCCA [8-mer CCAGCCCA]: the binding signal in series [1] is 9.94; in series [2], 7.58; in series [3], 10.1.
For the sequence GCCGCCAC [8-mer GCCGCCAC], the figures for the binding signal in series [1], in series [2] and in series [3] were 9.9, 7.49 and 10, respectively.
Take AAGTTCGG [8-mer AAGTTCGG]: the binding signal is 10.1 in series [1], 7.7 in series [2] and 10.1 in series [3].
With CTGCTGCC [8-mer CTGCTGCC], the binding signal in series [1] was 9.87; in series [2], 7.72; in series [3] it was 10.
Turning to CGCCAAGA [8-mer CGCCAAGA], the values for the binding signal in series [1], in series [2] and in series [3] were 9.85, 7.79 and 10, respectively.
Turning to ACCCCCGC [8-mer ACCCCCGC], the binding signal in series [1] was 9.98; in series [2], 7.66; in series [3], 10.
For AAGGGGGA [8-mer AAGGGGGA], the binding signal in series [1] is 9.88; in series [2] it was 7.84; in series [3], 10.
Regarding AGGGAGCG [8-mer AGGGAGCG], the results for the binding signal in series [1], in series [2] and in series [3] were 9.98, 7.54 and 10, respectively.
Turning to CGTGCCGA [8-mer CGTGCCGA], the figures for the binding signal in series [1], in series [2] and in series [3] were 10, 7.5 and 10.1, respectively.
On to AGGCAGAC [8-mer AGGCAGAC], for which the binding signal in series [1] is 10.1; in series [2] it was 7.89; in series [3] it was 10.1.
With CATTATTA [8-mer CATTATTA], the results for the binding signal in series [1], in series [2] and in series [3] were 10.9, 10.1 and 10.3, respectively.
For the sequence AAGCACCG [8-mer AAGCACCG], the binding signal in series [1] is 10.1; in series [2] it was 7.88; in series [3], 10.1.
With AGGCCTAG [8-mer AGGCCTAG], the binding signal in series [1] was 9.94; in series [2], 7.68; in series [3] it was 10.
As for AGCGTCCG [8-mer AGCGTCCG], the binding signal is 9.92 in series [1], 7.42 in series [2] and 10.1 in series [3].
For CTGACGTC [8-mer CTGACGTC], the binding signal in series [1] is 10.1; in series [2] it was 7.78; in series [3], 10.1.
For GAGGAGCA [8-mer GAGGAGCA], the binding signal in series [1] was 9.94; in series [2] it was 7.66; in series [3] it was 10.2.
Turning to CGGACTCC [8-mer CGGACTCC], the binding signal in series [1] is 9.86; in series [2], 7.54; in series [3], 10.1.
Turning to CCCAGGAA [8-mer CCCAGGAA], the binding signal was 9.94 in series [1], 7.76 in series [2] and 10 in series [3].
As to AGGCGAAG [8-mer AGGCGAAG], the binding signal was 10 in series [1], 7.8 in series [2] and 10.1 in series [3].
Take CCGTCTAG [8-mer CCGTCTAG]: the binding signal was 10 in series [1], 7.7 in series [2] and 10 in series [3].
For the sequence AGCGGGGG [8-mer AGCGGGGG], the binding signal in series [1] was 9.86; in series [2] it was 7.67; in series [3], 10.1.
With GCTGCGAC [8-mer GCTGCGAC], the binding signal in series [1] was 10; in series [2] it was 7.68; in series [3], 10.
On to CTCCTCTC [8-mer CTCCTCTC], for which the values for the binding signal in series [1], in series [2] and in series [3] were 9.85, 7.53 and 9.97, respectively.
Consider CAGTGAGG [8-mer CAGTGAGG], for which the binding signal is 9.98 in series [1], 7.88 in series [2] and 10.1 in series [3].
With GGCCGGCC [8-mer GGCCGGCC], the binding signal in series [1] is 9.77; in series [2], 7.71; in series [3], 9.88.
AGGCCCGG [8-mer AGGCCCGG]: the binding signal in series [1] was 9.78; in series [2], 7.73; in series [3] it was 9.98.
For CCTAGCCG [8-mer CCTAGCCG], the binding signal is 9.89 in series [1], 7.78 in series [2] and 10 in series [3].
Turning to GGCCTCAC [8-mer GGCCTCAC], the binding signal in series [1] was 9.91; in series [2], 7.84; in series [3], 9.97.
On to GGAAATTA [8-mer GGAAATTA], for which the figures for the binding signal in series [1], in series [2] and in series [3] were 10.9, 10.1 and 10.3, respectively.
Take CAACCGGC [8-mer CAACCGGC]: the binding signal was 10 in series [1], 7.74 in series [2] and 10.1 in series [3].
Consider CAAGCGGC [8-mer CAAGCGGC], for which the binding signal in series [1] is 10; in series [2], 7.59; in series [3], 10.1.
Regarding GGCGCGCC [8-mer GGCGCGCC], the figures for the binding signal in series [1], in series [2] and in series [3] were 9.9, 8.16 and 9.94, respectively.
Take CGCTGCCG [8-mer CGCTGCCG]: the binding signal in series [1] is 9.81; in series [2], 7.51; in series [3], 9.85.
GACCGGGC [8-mer GACCGGGC]: the binding signal is 9.87 in series [1], 7.64 in series [2] and 10.1 in series [3].
On to CGGGTACC [8-mer CGGGTACC], for which the binding signal is 9.98 in series [1], 7.82 in series [2] and 9.96 in series [3].
Turning to CCCCCTTA [8-mer CCCCCTTA], the binding signal in series [1] is 9.93; in series [2], 7.81; in series [3], 10.
On to ATTAGCAC [8-mer ATTAGCAC], for which the binding signal is 10.8 in series [1], 9.72 in series [2] and 10.3 in series [3].
For ATTATGTG [8-mer ATTATGTG], the binding signal in series [1] is 10.9; in series [2] it was 9.66; in series [3], 10.5.
On to CGCCGGCG [8-mer CGCCGGCG], for which the binding signal was 10 in series [1], 7.73 in series [2] and 9.99 in series [3].
As to AACCGCCG [8-mer AACCGCCG], the values for the binding signal in series [1], in series [2] and in series [3] were 10, 7.75 and 10.2, respectively.
On to AAAGACGC [8-mer AAAGACGC], for which the binding signal in series [1] was 10.1; in series [2], 7.97; in series [3], 10.1.
For CGTCCGCC [8-mer CGTCCGCC], the binding signal is 9.9 in series [1], 7.57 in series [2] and 9.96 in series [3].
